Reference: the supplement of paper PMC9446081
Hit rate of the full screen: of about 39,000 compounds, about 220 (0.56%) showed activity. The list shows a part of the results.

System: Escherichia coli K-12 BW25113
Assay: relative growth (OD600 normalised to plate interquartile mean) (fraction); higher = less growth inhibition, active = 0.2 or less
Details: 50 µM; LB; incubation time: overnight (16-24 h)
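Further: static incubation at 37 °C against the wild-type strain, values averaged over two biological replicates.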

SMILES	relative growth
Cc1noc(C)c1NC(=O)N(C)C[C@H]1Oc2ccc(NC(=O)CCCN(C)C)cc2C(=O)N([C@H](C)CO)C[C@H]1C	inactive: 1.06
C[C@H]1CN([C@@H](C)CO)C(=O)c2cccc(NC(=O)c3nc4ccccc4s3)c2O[C@@H]1CN(C)S(=O)(=O)c1cn(C)cn1	inactive: 0.992
COc1ccc(S(=O)(=O)N(C)C[C@@H]2OCCCC[C@@H](C)Oc3ccc(NC(=O)Nc4cccc5ccccc45)cc3C(=O)N([C@H](C)CO)C[C@H]2C)cc1	inactive: 1.05
C[C@H](CO)N1C[C@H](C)[C@H](CN(C)S(=O)(=O)c2ccc(C#N)cc2)Oc2ncc(C#CCN(C)C)cc2C1=O	inactive: 1.01
C[C@@H]1CCCCO[C@@H](CN(C)Cc2ccc3c(c2)OCO3)[C@@H](C)CN([C@H](C)CO)C(=O)c2cc(NC(=O)Nc3ccc(F)cc3)ccc2O1	inactive: 1
COc1ccc(S(=O)(=O)N(C)C[C@@H]2Oc3c(NS(=O)(=O)c4c(C)noc4C)cccc3C(=O)N([C@@H](C)CO)C[C@@H]2C)cc1	inactive: 1.01
Cc1noc(C)c1NC(=O)Nc1ccc2c(c1)CC(=O)N([C@@H](C)CO)C[C@@H](C)[C@@H](CN(C)C(=O)Nc1ccc(C(F)(F)F)cc1)O2	inactive: 0.982
O=C(C[C@@H]1CC[C@@H]2[C@H](COC[C@@H](O)CN2C(=O)c2ccc3c(c2)OCO3)O1)NCCN1CCCC1	inactive: 1.01
C[C@H]1CCCCO[C@H](CN(C)C(=O)Nc2ccc(F)cc2)[C@@H](C)CN([C@@H](C)CO)C(=O)c2cc(NC(=O)Nc3ccc(C(F)(F)F)cc3)ccc2O1	inactive: 0.97
COc1cc(N2CCC3(CC2)CNC(=O)CO3)ncn1	inactive: 0.968
C[C@@H]1CN([C@H](C)CO)C(=O)Cc2cc(NC(=O)CCN3CCOCC3)ccc2O[C@@H]1CN(C)Cc1ccccc1	inactive: 0.982
CC(C)CC#Cc1ccc2c(c1)O[C@H](CN(C)C(=O)C1CCOCC1)[C@@H](C)CN([C@@H](C)CO)S2(=O)=O	inactive: 1
CC(=O)NCCCC[C@@H]1NC(=O)[C@@H]2C[C@H](C(=O)NCCCC[N+](C)(C)C)[C@H](c3cccc(OCCO)c3)N2C1=O	inactive: 0.965
CC(=O)OCC[N+](C)(C)C	inactive: 1.01
C[C@@H]1CN([C@H](C)CO)C(=O)Cc2cc(NS(=O)(=O)c3cccs3)ccc2O[C@H]1CN(C)S(=O)(=O)c1ccccc1	inactive: 0.998
COCC#Cc1ccc([C@H]2[C@@H](CO)N3C(=O)CN(C(=O)CN4CCOCC4)C[C@H]23)cc1	inactive: 0.999
C[C@H]1CCCCO[C@H](CN(C)C(=O)Nc2ccccc2)[C@@H](C)CN([C@@H](C)CO)C(=O)c2cc(NS(=O)(=O)c3ccc(F)cc3)ccc2O1	inactive: 1.01
Cc1ccc(S(=O)(=O)N(C)C[C@H]2Oc3c(NC(=O)NC(C)C)cccc3C(=O)N([C@@H](C)CO)C[C@H]2C)cc1	inactive: 0.992
C[C@@H]1CN([C@H](C)CO)C(=O)c2cccc(NC(=O)NC3CCCCC3)c2O[C@H]1CN(C)C(=O)Nc1ccc(C(F)(F)F)cc1	inactive: 0.72

SMILES	relative growth
C[C@@H]1CN([C@@H](C)CO)S(=O)(=O)c2ccc(-c3cncnc3)cc2O[C@@H]1CN(C)C(=O)Cc1ccncc1	inactive: 1
COc1ccc(CNC(=O)c2cc3c(c(-c4cccc(-c5ccc(C#N)cc5)c4)n2)[C@@H](CCO)N([S@](=O)C(C)(C)C)C3)cc1	inactive: 1.01
C[C@@H]1CCCCO[C@H](CN(C)C(=O)Nc2ccc(C(F)(F)F)cc2)[C@@H](C)CN([C@H](C)CO)C(=O)c2cc(NS(C)(=O)=O)ccc2O1	inactive: 1.02
Cc1ccc(S(=O)(=O)Nc2ccc3c(c2)C(=O)N([C@H](C)CO)C[C@@H](C)[C@H](CN(C)C(=O)NC(C)C)O3)cc1	inactive: 0.984
C[C@@H]1CN([C@@H](C)CO)C(=O)c2cc(NS(=O)(=O)c3cccs3)ccc2O[C@@H](C)CCCCO[C@@H]1CN(C)S(=O)(=O)c1cn(C)cn1	inactive: 0.991
C[C@@H]1CN([C@H](C)CO)C(=O)CCCn2cc(nn2)CO[C@@H]1CN(C)S(=O)(=O)c1ccc2ccccc2c1	inactive: 0.992
COc1ccc(CN(C)C[C@@H]2Oc3ccc(NS(=O)(=O)c4c(C)noc4C)cc3CC(=O)N([C@@H](C)CO)C[C@@H]2C)cc1	inactive: 0.994
CC(C)(C)[S@](=O)N1Cc2cc(C(=O)NCCN3CCCCC3)nc(-c3cccc(-c4ccc(C#N)cc4)c3)c2[C@@H]1CCO	inactive: 1.01
C[C@H](CO)N1C[C@H](C)[C@H](CN(C)Cc2ccc(C(=O)O)cc2)OCCCC[C@H](C)Oc2ccc(NC(=O)Cc3ccccc3)cc2C1=O	inactive: 1.02
C[C@H](CO)N1C[C@H](C)[C@H](CN(C)Cc2ccc(C(F)(F)F)cc2)Oc2c(NC(=O)Nc3ccccc3)cccc2C1=O	inactive: 1.03
COCC#Cc1ccc2c(c1)O[C@H](CN(C)C(=O)c1ccccc1F)[C@H](C)CN([C@H](C)CO)S2(=O)=O	inactive: 1.03
CC1(C)CCC2=C(O1)c1ccccc1C(=O)C2=O [beta-LAPACHONE]	inactive: 1.14
CO[C@H]1CN(C)C(=O)c2cc(NC(=O)C3CC3)ccc2OC[C@@H](C)N(C(=O)C2CCOCC2)C[C@H]1C	inactive: 1.02
C[C@H]1CCCCO[C@@H](CN(C)S(=O)(=O)c2ccc(F)cc2)[C@@H](C)CN([C@@H](C)CO)C(=O)c2cc(NC(=O)Nc3ccc(F)cc3)ccc2O1	inactive: 1.05
C[C@H]1CCCCO[C@H](CN(C)S(=O)(=O)c2ccccc2)[C@@H](C)CN([C@@H](C)CO)C(=O)c2cc(NC(=O)Nc3ccc4c(c3)OCO4)ccc2O1	inactive: 1.03
C[C@@H]1CCCCO[C@H](CN(C)C(=O)c2ccccc2)[C@@H](C)CN([C@H](C)CO)C(=O)c2cc(NC(=O)Nc3ccc(F)cc3)ccc2O1	inactive: 1.02
CC(=O)Oc1ccc(O)cc1	inactive: 0.927
C[C@@H]1CCCCO[C@@H](CN(C)S(=O)(=O)c2ccccc2)[C@H](C)CN([C@H](C)CO)C(=O)c2cc(NC(=O)C3CCCCC3)ccc2O1	inactive: 0.991
